Results as given in the supplement of paper PMC10126150.
Values marked as one replicate rest on one cluster of the flow cell; about a third of the high ones do not repeat.

test system: ATP; assay: switch fluorescence ratio, 500 uM ATP over buffer (Cy3 cluster intensity, sum of 5 cycles each) (fold (ratio)); higher = stronger signal-on switching upon ATP binding; sequences stand for … in TCGTCGGCAGCGTCAGATGTGTATAAGAGACAGTTTTTTTTTTTTTTTTTTTTTTTTT…TC; conditions: aptamer strand: ATP DNA aptamer (quencher-CACCTGGGGGAGTATTGCGGAGGAAGG + anchor), 100 nM annealed; ATP concentration: 500 uM; one replicate
Method in brief: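 For every switch-domain sequence, the fluorescence ratio is the mean of per-cluster values, each being summed target-cycle Cy3 intensity over summed buffer-cycle Cy3 intensity. Clusters outside 100-1000 RFU were excluded. On a modified Illumina MiSeq flow-cell, the Cy3-labelled switching-strand clusters were annealed to 100 nM quencher-labelled ATP aptamer, imaged in selection buffer and then after 15 min with 500 uM ATP at 22 °C. Five such cycles were run, with NaOH stripping and re-annealing between them.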
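Note: ATP exposure 15 min at 22 °C before imaging.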

Sequence | switch fluorescence ratio
GCTAGCACAC | 1.12
CGTCTTCTGA | 1.04
TGGAGTGTGT | 1.01
TATACCATGT | 1.02
GCAGCGGGAA | 1.12
TCTCCACCTA | 1.16
ACGCCTAATG | 1.05
ATAGTCTAGG | 0.941
GAAGATGCGC | 0.979
GATATAGATG | 1
TCTAATGTG | 1.01
GGAGGGGGCT | 0.967
CGCTGCCTCC | 2.54
ATAGTATCAT | 0.955
GTGTGGGTGC | 1.04
CCTCAGCTAA | 3.4
CAGATTGGCT | 1.01
ACCGTCCGCG | 1.46
CCCTATGCT | 1.16
GTAACAAACT | 1.04
TATGGGCCTT | 0.944
TGCCCGGGAC | 2.12
TCGACTTCCC | 1.17
TCCCGGCTCT | 1.08
GGGAACAATG | 1.04
TCGTTCTCCC | 1.17

Sequence | switch fluorescence ratio
TTGGAGTGGA | 1.01
GGACTACCCC | 1.04
TCATATTTTG | 0.996
TTTTCACTAG | 1.01
TAAGCACCTG | 1.14
TTCACGAGAC | 2.47
TTCGAGACCA | 1.02
GACTCGCTGC | 1.79
TTAACTGG | 0.941
TAGGAGGCCA | 0.944
TGTGGTTTGG | 0.992
ACACAGGAGG | 1.03
TGACTCCGGA | 2.31
GAAGTGCCCT | 1.04
TTTCCGGT | 1.02
ACAAAGCCTT | 1.11
TTGGATCCC | 0.979
GTGCCGAAAA | 0.971
TCATGCCACG | 1.07
GTGTATGGAA | 1.06
GGGCAAG | 1.14
GTTTGAAGG | 1.01
AAACTGGTCC | 1.11
TAGCGTGCAT | 1.03
CGCACTTGGA | 1.03
TTAAAAACCG | 1.02

Sequence | switch fluorescence ratio
ATTCGAGGTC | 0.991
GCGAATCGTT | 1.03
CATGTAAATG | 1.03
GCGTTCGCCT | 0.964
CACTAATAAA | 1.02
TGTCCCAATA | 1.03
AGTTGACGAG | 1.03
GGTAATTTT | 0.993
CCTAGGTATC | 1.01
GGGAGCAGAC | 2.75
GTGTGCATTA | 0.978
GCTTAGCCTC | 1
AATGGGTCCA | 0.956
CGGCGGGGCG | 0.997
GTAATGGGGC | 0.985
TCACTATGAC | 1.07
GCCGGTGCCA | 1.02
ATATACGTAC | 1.63
ACCCAAAGTA | 1.02
TTAGAAGGGT | 0.985
TGACCGATTC | 1.04
GTAAGAGTAT | 0.97
CGATTTAGCA | 1.08
AAAAGAATAC | 1.09
TGTCAATCGG | 0.969
GGATATGCAC | 1.07

Sequence | switch fluorescence ratio
TGGTGCCTGG | 1
GGATGAAATA | 1.03
AGCGTACGGT | 1.05
CATGGGGCTG | 0.965
GTGCATGTGC | 1.01
TAAAGTAGCA | 0.996
TCTGGAAAGA | 0.962
AGTCGTTAGA | 1.04
CGGCGTTAGT | 0.984
TTAGAGTGGC | 0.977
CGTGCTCGCT | 1.03
TAGCAACGTC | 0.895
TGATCCCAAA | 0.986
TAGATAGTAC | 0.995
ATAATGTTAT | 1.02
GGTTGTTCA | 0.979
TCTCGGCCCC | 1.07
GCAAGGAAAT | 1
ACGTTACGTT | 1.4
AACAAATAGG | 0.994
GGCGGTAGG | 1.02
CAACGGGGGC | 1.16
ATTGCTCTAA | 1.02
CTCATAGGCA | 0.971
CAAGGGTGCG | 1.01
CCCCGAACA | 1.28

Sequence | switch fluorescence ratio
GTTATGCAAT | 1.11
TCTGCACCAA | 1.19
CGCCGACTCG | 1.05
TCGTGTGGA | 1.04
AGCTCACTTA | 1.06
CCTACGTCGT | 2.38
AGCTAACCGC | 1.02
TTGATTTATC | 0.964
AACGTGGGGT | 0.983
GAGGAATCAG | 0.999
ACCACCGCTG | 1.33
TTGCCCCGCC | 1.19
CAGTCGGAAA | 0.968
AGAAAAATA | 1.03
TCTTCGAGAC | 1.3
ATTAACCAGT | 1.03
CCAGTATCAT | 0.992
AGCTATGTCA | 1.08
GAGGGAGAGT | 1.02
TCGGCTGTGG | 1.03
CGTCGGGACA | 0.982
ATGGGTGGAC | 1.04
CCGTACAATT | 2.41
CCATCCATGG | 1.01
TTCACCTGAA | 1.06
GAAAAACGTT | 1.04

Sequence | switch fluorescence ratio
AGCTAAGAGA | 0.965
TCCTTGTAAC | 1.21
TGTGCCTAGG | 0.989
CAGGATTAAT | 0.968
AGACGCTCG | 0.911
CGTTTTTCGC | 1.04
CGGGTTTTAA | 0.992
AACAGCGTCG | 0.985
GTACGGGATG | 1.03
CGTGGTACGT | 0.969
GTGATTTGGA | 0.981
CGGCATGCAA | 1.55
AGGCTGCATA | 1.08
TTGACAGTAG | 1.01
TCTATGCACT | 1.06
CATTATACCT | 1.28
GGGATAACTT | 0.982
AATACGTATC | 1.11
TGTTAAATTG | 1.03
CACTCTGTGG | 1.09
ACTTAATTCT | 1.03
TTGCTATCGT | 0.979
TTTGAACGAA | 1.01
CCCAAGAAGT | 0.989
AGCCTGGCTA | 1.02
TTGAAATAT | 3.27

Sequence | switch fluorescence ratio
AAATCCTAGG | 1.04
GCGAATCTAT | 0.967
TACGGTGATA | 0.995
ATCGGATGTT | 0.964
TCATCATCTT | 0.99
GAAAGGAGCG | 1.03
AACAACAGCT | 0.998
ACTGTCTTGG | 0.998
GTCGACCACG | 0.977
GACTCTGCTA | 6.12
GGGGATTCTT | 1.02
AAGATGTTTC | 0.995
TGGGGATGAG | 1.07
AAGACGCCCA | 1.14
TTTAAGCCAA | 1.01
ATCACCTG | 1.05
AATCCGAGAG | 1.04
ACCGGCGCCA | 1.07
AATCACGGGC | 1
AGGCATCCCA | 1.04
TGATGTTCCT | 1.04
ATTTAAGAT | 0.971
ACTTGTCTTG | 0.969
TTACAAATCG | 0.998
AGGATCACGT | 0.959
GCGAAAGCAA | 1.03

Sequence | switch fluorescence ratio
CGTCTTC | 0.99
TTCGTCCGTT | 1.1
CTCGGTAT | 0.983
ATGTCCTGA | 1.03
GCGATTCCGG | 0.985
TCTCGGCCGC | 1.08
GATCCGGCAT | 1.11
CTTCTGGGAA | 1.03
GACATTGCTA | 1.03
AGCATATGC | 1.05
TTAGCTAACC | 1.01
CGTTTCAGTC | 0.965
ATTATTGTTC | 1.01
ACGGGCGTCG | 1.03
CGTAGTGCTA | 1.01
CGTCTTTCTT | 1.02
TCAGGGGG | 0.957
ACGTTAAATA | 1.14
CAATATAG | 0.981
